In patent US20210324028A1 (Pfizer, published 2021):

T1: IL-15 signaling receptor on 32D[pRF770+pRF791] cells (human CD122 plus mouse CD132) (human; mouse, UniProt P14784 27-551; P34902 23-369)
T1 sequence (looked up) 1: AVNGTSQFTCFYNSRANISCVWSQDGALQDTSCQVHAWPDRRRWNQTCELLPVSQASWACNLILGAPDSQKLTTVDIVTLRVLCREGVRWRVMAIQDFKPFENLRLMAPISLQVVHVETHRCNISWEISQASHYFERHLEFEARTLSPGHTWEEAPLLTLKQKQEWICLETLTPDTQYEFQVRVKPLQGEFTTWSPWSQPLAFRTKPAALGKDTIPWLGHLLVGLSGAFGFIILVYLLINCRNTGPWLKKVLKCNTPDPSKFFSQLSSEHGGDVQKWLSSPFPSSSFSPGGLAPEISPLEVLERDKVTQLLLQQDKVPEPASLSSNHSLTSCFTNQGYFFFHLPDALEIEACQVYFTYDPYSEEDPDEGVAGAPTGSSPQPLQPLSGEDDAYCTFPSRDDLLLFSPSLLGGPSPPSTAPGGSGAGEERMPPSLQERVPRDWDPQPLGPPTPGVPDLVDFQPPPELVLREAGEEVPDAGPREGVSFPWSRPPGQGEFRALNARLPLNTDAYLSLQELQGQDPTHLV
T1 sequence (looked up) 2: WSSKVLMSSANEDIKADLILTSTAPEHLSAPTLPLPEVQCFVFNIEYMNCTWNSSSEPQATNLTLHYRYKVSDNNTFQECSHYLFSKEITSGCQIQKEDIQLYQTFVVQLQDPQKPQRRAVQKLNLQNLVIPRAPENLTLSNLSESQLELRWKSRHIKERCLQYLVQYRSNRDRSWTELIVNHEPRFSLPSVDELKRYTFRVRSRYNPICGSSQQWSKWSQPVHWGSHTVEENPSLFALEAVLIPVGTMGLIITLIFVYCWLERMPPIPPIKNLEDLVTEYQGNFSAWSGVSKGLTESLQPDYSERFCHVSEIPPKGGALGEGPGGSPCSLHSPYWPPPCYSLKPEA

T2: mouse PD-1 on doxycycline-induced 32D[pRF770+pRF791] cells (mouse, UniProt Q02242 25-288)
T2 sequence (looked up): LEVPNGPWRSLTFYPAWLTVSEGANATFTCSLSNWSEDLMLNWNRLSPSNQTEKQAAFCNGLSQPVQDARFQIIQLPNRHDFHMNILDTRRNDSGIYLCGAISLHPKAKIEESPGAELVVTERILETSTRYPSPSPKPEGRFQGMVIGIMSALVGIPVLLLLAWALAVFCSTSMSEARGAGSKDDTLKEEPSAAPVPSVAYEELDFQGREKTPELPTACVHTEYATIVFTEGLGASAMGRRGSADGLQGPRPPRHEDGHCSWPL

B1: xmPD1-hIL15Rasu-hIL-15 K11S/D30N (other)
chain 1: [about 120 residues with changes left out here]
chain 2: HHHHHHHHGGGGSGSGGEVQLVESGGGLVKPGGSLELSCAASGFTFSSYWMSWVRQAPEKGLEWVAAISPSGGSTYYADSVKGRFTISRDNAKNTLFLQMTSLRSEDTAMYYCAKESWGAYYDLWGQGTTVTVSSASTKGPSVFPLAPCSRSTSESTAALGCLVKDYFPEPVTVSWNSGALTSGVHTFPAVLQSSGLYSLSSVVTVPSSNFGTQTYTCNVDHKPSNTKVDKTVERKCRVRCPRCPAPPVAGPSVFLFPPKPKDTLMISRTPEVTCVVVAVSHEDPEVQFNWYVDGVEVHNAKTKPREEQFNSTFRVVSVLTVVHQDWLNGKEYKCKVSNKGLPSSIEKTISKTKGQPREPQVYTLPPSREEMTKNQVSLTCLVKGFYPSDIAVEWESNGQPENNYKTTPPMLDSDGSFFLYSRLTVDKSRWQQGNVFSCSVMHEALHNHYTQKSLSLSPGK
chain 3: DIVMTQSPSSLSVSAGDKVTMSCRASQGISSWLAWYQQKPWQPPKLLIYKASTLESGVPDRFTGSGSGTDFTLTISSVQAEDLAVYYCQQSYSTPWTFGGGTKLEIKGTVAAPSVFIFPPSDEQLKSGTASVVCLLNNFYPREAKVQWKVDNALQSGNSQESVTEQDSKDSTYSLSSTLTLSKADYEKHKVYACEVTHQGLSSPVTKSFNRGEC
B2: xmPD1-hIL15Rasu-hIL-15 D61N/D30N (other)
chain 1: [about 120 residues with changes left out here]
chain 2: HHHHHHHHGGGGSGSGGEVQLVESGGGLVKPGGSLELSCAASGFTFSSYWMSWVRQAPEKGLEWVAAISPSGGSTYYADSVKGRFTISRDNAKNTLFLQMTSLRSEDTAMYYCAKESWGAYYDLWGQGTTVTVSSASTKGPSVFPLAPCSRSTSESTAALGCLVKDYFPEPVTVSWNSGALTSGVHTFPAVLQSSGLYSLSSVVTVPSSNFGTQTYTCNVDHKPSNTKVDKTVERKCRVRCPRCPAPPVAGPSVFLFPPKPKDTLMISRTPEVTCVVVAVSHEDPEVQFNWYVDGVEVHNAKTKPREEQFNSTFRVVSVLTVVHQDWLNGKEYKCKVSNKGLPSSIEKTISKTKGQPREPQVYTLPPSREEMTKNQVSLTCLVKGFYPSDIAVEWESNGQPENNYKTTPPMLDSDGSFFLYSRLTVDKSRWQQGNVFSCSVMHEALHNHYTQKSLSLSPGK
chain 3: DIVMTQSPSSLSVSAGDKVTMSCRASQGISSWLAWYQQKPWQPPKLLIYKASTLESGVPDRFTGSGSGTDFTLTISSVQAEDLAVYYCQQSYSTPWTFGGGTKLEIKGTVAAPSVFIFPPSDEQLKSGTASVVCLLNNFYPREAKVQWKVDNALQSGNSQESVTEQDSKDSTYSLSSTLTLSKADYEKHKVYACEVTHQGLSSPVTKSFNRGEC
B3: xmPD1-hIL15Rasu-hIL-15 K11S/M109A (other)
chain 1: [about 120 residues with changes left out here]
chain 2: HHHHHHHHGGGGSGSGGEVQLVESGGGLVKPGGSLELSCAASGFTFSSYWMSWVRQAPEKGLEWVAAISPSGGSTYYADSVKGRFTISRDNAKNTLFLQMTSLRSEDTAMYYCAKESWGAYYDLWGQGTTVTVSSASTKGPSVFPLAPCSRSTSESTAALGCLVKDYFPEPVTVSWNSGALTSGVHTFPAVLQSSGLYSLSSVVTVPSSNFGTQTYTCNVDHKPSNTKVDKTVERKCRVRCPRCPAPPVAGPSVFLFPPKPKDTLMISRTPEVTCVVVAVSHEDPEVQFNWYVDGVEVHNAKTKPREEQFNSTFRVVSVLTVVHQDWLNGKEYKCKVSNKGLPSSIEKTISKTKGQPREPQVYTLPPSREEMTKNQVSLTCLVKGFYPSDIAVEWESNGQPENNYKTTPPMLDSDGSFFLYSRLTVDKSRWQQGNVFSCSVMHEALHNHYTQKSLSLSPGK
chain 3: DIVMTQSPSSLSVSAGDKVTMSCRASQGISSWLAWYQQKPWQPPKLLIYKASTLESGVPDRFTGSGSGTDFTLTISSVQAEDLAVYYCQQSYSTPWTFGGGTKLEIKGTVAAPSVFIFPPSDEQLKSGTASVVCLLNNFYPREAKVQWKVDNALQSGNSQESVTEQDSKDSTYSLSSTLTLSKADYEKHKVYACEVTHQGLSSPVTKSFNRGEC
B4: xmPD1-hIL15Rasu-hIL-15 D61N/M109A (other)
chain 1: [about 120 residues with changes left out here]
chain 2: HHHHHHHHGGGGSGSGGEVQLVESGGGLVKPGGSLELSCAASGFTFSSYWMSWVRQAPEKGLEWVAAISPSGGSTYYADSVKGRFTISRDNAKNTLFLQMTSLRSEDTAMYYCAKESWGAYYDLWGQGTTVTVSSASTKGPSVFPLAPCSRSTSESTAALGCLVKDYFPEPVTVSWNSGALTSGVHTFPAVLQSSGLYSLSSVVTVPSSNFGTQTYTCNVDHKPSNTKVDKTVERKCRVRCPRCPAPPVAGPSVFLFPPKPKDTLMISRTPEVTCVVVAVSHEDPEVQFNWYVDGVEVHNAKTKPREEQFNSTFRVVSVLTVVHQDWLNGKEYKCKVSNKGLPSSIEKTISKTKGQPREPQVYTLPPSREEMTKNQVSLTCLVKGFYPSDIAVEWESNGQPENNYKTTPPMLDSDGSFFLYSRLTVDKSRWQQGNVFSCSVMHEALHNHYTQKSLSLSPGK
chain 3: DIVMTQSPSSLSVSAGDKVTMSCRASQGISSWLAWYQQKPWQPPKLLIYKASTLESGVPDRFTGSGSGTDFTLTISSVQAEDLAVYYCQQSYSTPWTFGGGTKLEIKGTVAAPSVFIFPPSDEQLKSGTASVVCLLNNFYPREAKVQWKVDNALQSGNSQESVTEQDSKDSTYSLSSTLTLSKADYEKHKVYACEVTHQGLSSPVTKSFNRGEC
B5: xmPD1-hIL15Rasu-hIL-15 E64Q/M109A (other)
chain 1: [about 120 residues with changes left out here]
chain 2: HHHHHHHHGGGGSGSGGEVQLVESGGGLVKPGGSLELSCAASGFTFSSYWMSWVRQAPEKGLEWVAAISPSGGSTYYADSVKGRFTISRDNAKNTLFLQMTSLRSEDTAMYYCAKESWGAYYDLWGQGTTVTVSSASTKGPSVFPLAPCSRSTSESTAALGCLVKDYFPEPVTVSWNSGALTSGVHTFPAVLQSSGLYSLSSVVTVPSSNFGTQTYTCNVDHKPSNTKVDKTVERKCRVRCPRCPAPPVAGPSVFLFPPKPKDTLMISRTPEVTCVVVAVSHEDPEVQFNWYVDGVEVHNAKTKPREEQFNSTFRVVSVLTVVHQDWLNGKEYKCKVSNKGLPSSIEKTISKTKGQPREPQVYTLPPSREEMTKNQVSLTCLVKGFYPSDIAVEWESNGQPENNYKTTPPMLDSDGSFFLYSRLTVDKSRWQQGNVFSCSVMHEALHNHYTQKSLSLSPGK
chain 3: DIVMTQSPSSLSVSAGDKVTMSCRASQGISSWLAWYQQKPWQPPKLLIYKASTLESGVPDRFTGSGSGTDFTLTISSVQAEDLAVYYCQQSYSTPWTFGGGTKLEIKGTVAAPSVFIFPPSDEQLKSGTASVVCLLNNFYPREAKVQWKVDNALQSGNSQESVTEQDSKDSTYSLSSTLTLSKADYEKHKVYACEVTHQGLSSPVTKSFNRGEC
B6: hIL-15 V49A (ligand)
chain: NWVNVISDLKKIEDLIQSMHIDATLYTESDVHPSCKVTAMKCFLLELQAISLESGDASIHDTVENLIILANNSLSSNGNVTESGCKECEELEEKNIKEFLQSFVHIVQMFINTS
notes: not shown: C-terminal linker-8xHis-Avi tag
B7: hIL-15 V49E (ligand)
chain: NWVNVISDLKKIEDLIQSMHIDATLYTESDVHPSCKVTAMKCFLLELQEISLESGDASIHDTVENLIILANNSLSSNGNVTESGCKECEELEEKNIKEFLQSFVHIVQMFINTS
notes: as for B6
B8: hIL-15 V49G (ligand)
chain: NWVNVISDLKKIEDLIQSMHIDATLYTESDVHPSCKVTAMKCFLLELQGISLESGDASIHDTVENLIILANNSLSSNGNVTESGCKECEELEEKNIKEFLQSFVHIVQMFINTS
notes: as for B6
B9: hIL-15 V49H (ligand)
chain: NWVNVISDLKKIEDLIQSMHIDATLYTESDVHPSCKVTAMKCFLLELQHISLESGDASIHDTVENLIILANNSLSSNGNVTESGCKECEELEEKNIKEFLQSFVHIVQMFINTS
notes: as for B6
B10: hIL-15 V49N (ligand)
chain: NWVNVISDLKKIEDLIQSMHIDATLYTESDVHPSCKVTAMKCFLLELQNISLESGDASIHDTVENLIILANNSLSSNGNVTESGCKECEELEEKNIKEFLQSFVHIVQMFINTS
notes: as for B6
B11: hIL-15 V49Q (ligand)
chain: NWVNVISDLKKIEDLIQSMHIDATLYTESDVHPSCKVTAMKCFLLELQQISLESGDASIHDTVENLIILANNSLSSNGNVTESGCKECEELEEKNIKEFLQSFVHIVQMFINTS
notes: as for B6
B12: hIL-15 V49S (ligand)
chain: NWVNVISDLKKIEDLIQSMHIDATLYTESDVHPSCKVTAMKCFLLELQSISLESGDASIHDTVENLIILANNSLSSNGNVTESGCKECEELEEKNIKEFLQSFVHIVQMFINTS
notes: as for B6

Legend:
[1] = target: T1, IL-15 signaling receptor on …; experiment: cell-based or functional assay
[2] = target: T2, mouse PD-1 on doxycycline-induced …; experiment: cell-based or functional assay
human IL-15Rα [3] = target: T3, human IL-15Rα (human, UniProt Q13261 31-205, limits assumed); experiment: SPR, kinetic fit
T3 construct: also called hIL-15Rα; IL-15 receptor alpha

human IL-15Rα [4] = target: T3, human IL-15Rα; experiment: SPR, steady state
T3 sequence (Q13261 31-205 limits assumed): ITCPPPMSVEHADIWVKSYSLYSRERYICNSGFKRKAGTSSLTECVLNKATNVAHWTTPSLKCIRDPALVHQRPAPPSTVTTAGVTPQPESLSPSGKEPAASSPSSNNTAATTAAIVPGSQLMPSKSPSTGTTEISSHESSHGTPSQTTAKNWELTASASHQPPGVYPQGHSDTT

| pSTAT5 EC50 on PD-1(low) 32D reporter cells [1] [nM] | Fold change = EC50 (PD-1(low))/EC50 (PD-1+) [2] [fold] | pSTAT5 EC50 on PD-1+ 32D reporter cells [2] | Kd (human IL-15Rα [3]) [nM] | koff (human IL-15Rα [3]) [s⁻¹] | kon (human IL-15Rα [3]) [M⁻¹ s⁻¹] | t1/2 (human IL-15Rα [3]) [min] | Kd (human IL-15Rα [4]) [nM] | Binder |
| --- | --- | --- | --- | --- | --- | --- | --- | --- |
| 18.8 | 44 | 0.42 nM |  |  |  |  |  | B1 |
| 22 | 139 | 0.16 nM |  |  |  |  |  | B2 |
| 3.13 | 19 | 0.16 nM |  |  |  |  |  | B3 |
| 12.9 | 193 | 70 pM |  |  |  |  |  | B4 |
| 10.1 | 163 | 60 pM |  |  |  |  |  | B5 |
|  |  |  | 0.874 | 0.00111 | 1.27e+06 | 10.4 |  | B6 |
|  |  |  |  |  |  |  | 43.4 | B7 |
|  |  |  | 4.32 | 0.00733 | 1.69e+06 | 1.58 |  | B8 |
|  |  |  |  |  |  |  | 28.5 | B9 |
|  |  |  | 1.86 | 0.00385 | 2.07e+06 | 3 |  | B10 |
|  |  |  | 8.17 | 0.0128 | 1.56e+06 | 0.91 |  | B11 |
|  |  |  | 1.34 | 0.00277 | 2.06e+06 | 4.17 |  | B12 |
